According to paper PMC4336329 (PLoS ONE, 2015):
The whole screen tested about 310,000 compounds, of which about 14,000 (4.5%) showed an effect of 50% or more. Effects have a minus sign here. The list shows a part of the results.

What follows are compounds tested against human ether-à-go-go-related gene (hERG) potassium channel (human, UniProt Q12809) (assay: primary screen, population patch clamp on CHO cells stably expressing hERG).
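Further: peak tail current of the secondary pulse compared with the same well before compound.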

Chain of human ether-à-go-go-related gene (hERG) potassium channel (Q12809 whole entry, looked up): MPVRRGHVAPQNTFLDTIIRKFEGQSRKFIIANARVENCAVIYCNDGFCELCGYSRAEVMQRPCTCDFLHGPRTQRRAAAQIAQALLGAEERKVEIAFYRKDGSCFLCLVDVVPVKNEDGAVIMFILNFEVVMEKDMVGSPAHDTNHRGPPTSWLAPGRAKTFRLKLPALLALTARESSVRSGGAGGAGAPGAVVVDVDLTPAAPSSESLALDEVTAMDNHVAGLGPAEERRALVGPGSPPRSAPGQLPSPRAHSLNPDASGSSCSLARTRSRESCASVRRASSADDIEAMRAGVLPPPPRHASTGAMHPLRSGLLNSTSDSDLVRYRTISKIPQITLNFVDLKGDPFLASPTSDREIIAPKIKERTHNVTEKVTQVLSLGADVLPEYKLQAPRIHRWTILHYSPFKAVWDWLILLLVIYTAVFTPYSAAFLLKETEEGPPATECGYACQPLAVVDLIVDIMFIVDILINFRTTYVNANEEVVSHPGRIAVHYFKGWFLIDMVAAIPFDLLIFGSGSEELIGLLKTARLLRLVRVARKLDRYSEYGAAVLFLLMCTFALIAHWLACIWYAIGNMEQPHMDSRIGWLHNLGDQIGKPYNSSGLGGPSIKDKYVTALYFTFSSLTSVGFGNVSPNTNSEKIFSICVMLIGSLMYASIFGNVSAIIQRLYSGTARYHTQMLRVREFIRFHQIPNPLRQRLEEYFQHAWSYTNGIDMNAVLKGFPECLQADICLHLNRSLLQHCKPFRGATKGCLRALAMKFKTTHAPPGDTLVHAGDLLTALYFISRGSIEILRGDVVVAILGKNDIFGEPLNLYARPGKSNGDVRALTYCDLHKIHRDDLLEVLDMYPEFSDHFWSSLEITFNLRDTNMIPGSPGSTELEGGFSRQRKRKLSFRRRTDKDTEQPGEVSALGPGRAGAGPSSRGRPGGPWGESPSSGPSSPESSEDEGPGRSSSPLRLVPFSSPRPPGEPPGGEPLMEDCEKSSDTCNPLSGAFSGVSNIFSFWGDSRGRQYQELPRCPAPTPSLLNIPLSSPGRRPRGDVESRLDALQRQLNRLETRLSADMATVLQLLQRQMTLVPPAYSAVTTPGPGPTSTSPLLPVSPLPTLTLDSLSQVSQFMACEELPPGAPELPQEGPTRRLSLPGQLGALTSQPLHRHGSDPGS

Row | Structure (SMILES) | hERG current change (%, negative = inhibition) at 10uM
1 | Cc1cc(C)n(-c2nc3ccccc3nc2N2CCN(S(=O)(=O)c3ccc4ccccc4c3)CC2)n1 | 1.47%
2 | COc1cccc(CNC(=O)CN2C(=O)CSc3ccc(S(=O)(=O)N4CCCC4)cc32)c1 | -42.3%
3 | COCCNc1nc(=S)[nH]c2cc(OC)c(OC)cc12 | 3.17%
4 | COc1cccc(OCCOCC(O)CN2CCN(Cc3ccc(Cl)cc3)CC2)c1.Cl (stereo not drawn) | -72.3%
5 | Cn1c(Cn2cnc3ccccc32)nnc1SCC(=O)CC(=O)Nc1ccccc1 | 0.103%
6 | CCOC(=O)c1cc(NC(=O)N(CC)C2CCCCC2)c(C)nc1C | -12.7%
7 | O=C1c2ccccc2C(O)N1Cc1ccccc1 (stereo not drawn) | 4.9%
8 | CCC(C)c1ccc(NC(=S)NCCn2cc(Cl)cn2)cc1 (stereo not drawn) | -0.708%
9 | C/C(CCc1ccccc1)=N\NC(=O)CC(=O)NCCc1ccccc1 | 7.61%
10 | O=C(NCc1ccccn1)c1ccccc1OCc1ccc(Cl)cc1Cl | -1.04%
11 | COc1ccc(/C=N/Nc2nc(C)cc(-c3ccccc3)n2)c(OC)c1 | -2.21%
12 | CCN(CC(=O)Nc1c(F)cccc1F)C(=O)c1ccc(OCc2c(C)noc2C)cc1 | -4.92%
13 | C/C(=N\N1CCN(c2ccccc2)CC1)c1cccs1 | 0.697%
14 | CC1(C)CC(NC(=O)c2cc(COc3cccc(C(F)(F)F)c3)on2)CCO1 (stereo not drawn) | -15.6%
15 | O=C(Nc1c(C(=O)N2CCC(N3CCCCC3)CC2)oc2ccccc12)c1ccc(F)cc1 | -65.8%
16 | Cc1ccc(NCc2nnc(SCC(N)=O)n2CC2CCCO2)c(C)c1 (stereo not drawn) | 8.71%
17 | CC(=O)Oc1ccc(C(=O)[C@H]2[C@H]3C(=O)N(c4cccc5ccccc45)C(=O)[C@H]3[C@@H]3C=CC=NN32)cc1 | 11.5%
18 | Cc1cccc(C)c1NC(=O)COc1ccc2c(C)c(Cc3ccccc3)c(=O)oc2c1C | 5.03%
19 | CCCCNC1=C(Br)C(=O)CC(C)(C)C1 | -2.82%
20 | CCOC(=O)c1cnc(Nc2nc3ccccc3o2)nc1C | -16.2%
21 | CC(=O)NC(Cc1ccccc1)C(=O)NC1CCN(C(=O)c2ccc([N+](=O)[O-])cc2)CC1 (stereo not drawn) | -10.6%
22 | COc1ccccc1C1C(C(C)=O)=C(O)C(=O)N1CCc1ccccc1 (stereo not drawn) | 15.4%

Row | Structure (SMILES) | hERG current change (%, negative = inhibition) at 10uM
23 | O=[N+]([O-])c1cccc(N(CC(O)CN2CCCC2)S(=O)(=O)c2ccccc2)c1 (stereo not drawn) | -62.4%
24 | COc1ccc(CCC(C)NCc2cc(OC)cc(OC)c2)cc1 (stereo not drawn) | -42.3%
25 | CC(=O)Oc1ccc2nc(-c3cccs3)oc(=O)c2c1 | 8.53%
26 | CC(C(=O)Nc1ccccc1)N1C(=O)c2ccccc2C1=O (stereo not drawn) | 8.45%
27 | O=C(NCc1ccncc1)C(=O)NCc1ccco1 | 0.559%
28 | CC1Cc2ccccc2N1CC(=O)Nc1ccc2c(c1)OC(F)(F)O2 (stereo not drawn) | -9.07%
29 | Cc1csc(=O)n1CC(=O)OCc1nnc(-c2ccc(Cl)cc2)o1 | -2.32%
30 | COc1cc(NS(=O)(=O)c2ccc(NC(=S)NC(=O)c3ccc(F)c(F)c3)cc2)nc(OC)n1 | 4.18%
31 | COc1ccc(C(OC(=O)c2ccco2)C(=O)NCC2CCCO2)cc1 (stereo not drawn) | 9.52%
32 | COc1ccc(-c2nnc(CSc3nc4ccccc4c(=O)n3CC3CCCO3)o2)cc1OC (stereo not drawn) | -49%
33 | O=C(CO/N=C/c1ccccc1O)N1CCc2ccccc21 | 8.71%
34 | COC(=O)c1ccc2nc(NC(=O)C(C)(C)C)sc2c1 | -7.64%
35 | CCCCCCC1C(C#N)=C(N)OC2=C1C(=O)CCC2 (stereo not drawn) | -12%
36 | NNc1nc(-c2ccccc2)c2ccccc2n1 | 3.34%
37 | COC(=O)c1ccc2c(=O)n3c(nc2c1)SCC(c1ccccc1)=N3 | -2.12%
38 | C=CCn1nc2ccccc2c1OC | 3.76%
39 | Cc1cc(C(=O)COC(=O)c2ccc3c(c2)NC(=O)CS3)c(C)n1CC1CCCO1 (stereo not drawn) | 1.05%
40 | CCOc1ccccc1Nc1nnc(SC(C)C(=O)Nc2nc(-c3ccccc3)cs2)s1 (stereo not drawn) | 1.46%
41 | COn1c(SC2CCCCC2)nc2ccccc2c1=O | -7.68%
42 | CC(=O)c1c(C)[nH]c(C(=O)OCC(=O)Nc2cccc(S(=O)(=O)N(C)C)c2)c1C | 14.5%
43 | Cc1cc(SCC(=O)OCC(=O)N2CCN(C(=O)c3ccco3)CC2)c(C)cc1Br | -50.2%
44 | OC1OC[C@@H](O)[C@H](O)[C@H]1O (stereo partly drawn) | 15.6%

Row | Structure (SMILES) | hERG current change (%, negative = inhibition) at 10uM
45 | O=S1(=O)N=C(Oc2ccccc2)c2ccccc21 | 5.14%
46 | CCCSc1cc(N2CCN(C)CC2)nc(-c2ccc(OC)cc2)n1.Cl | -29.2%
47 | COc1ccccc1NC(=O)c1cc(S(=O)(=O)N2CCC3(CC2)OCCO3)ccc1F | -4.73%
48 | CCOC(=O)c1cc2sccc2n1CC(=O)Nc1ccc2c(c1)OCCO2 | 18.8%
49 | O=C(O)c1c[nH]c(=O)c2ccccc12 | 5.82%
50 | O=S(=O)(NCCc1ccccc1)c1ccc(S(=O)(=O)N2CCCCC2)cc1 | 15.1%
51 | Cc1ccc(-c2cc(C(=O)N/N=C/c3ccccc3O)n[nH]2)o1 | 26.9%
52 | COc1cc(C2C(C(=O)c3cc4ccccc4o3)=C(O)C(=O)N2c2cc(C)on2)cc(OC)c1OC (stereo not drawn) | 24.6%
53 | O=C(Nc1cc(Cl)ccc1O)C1CC(c2ccccc2O)=NO1 (stereo not drawn) | -5.36%
54 | NC(=S)N/N=C1\CC(c2ccc3c(c2)OCCCO3)Oc2ccc(F)cc21 (stereo not drawn) | 6.23%
55 | CN(C)S(=O)(=O)Nc1ccc(Br)cc1F | 11.7%
56 | CN1C(=O)S/C(=C\c2ccc(-n3cncn3)cc2)C1=O | -3.72%
57 | COC(=O)C1CCN(C(=O)c2ccc(NC(C)=O)cc2)CC1 | 1.4%
58 | COCCNC(=O)C(c1cccc(OC)c1)N(C(=O)Cn1nnc2ccccc21)c1cccnc1 (stereo not drawn) | 7.66%
59 | CCN(CC)S(=O)(=O)c1ccc(Cl)c(C(=O)Nc2nncs2)c1 | 14.4%
60 | C[C@H](CCC(=O)O)[C@H]1CC[C@H]2[C@@H]3CC[C@@H]4C[C@H](O)CC[C@]4(C)[C@H]3C[C@H](O)[C@]12C | 11.8%
61 | Cc1ccc(CN2C(=O)N/C(=C/c3ccc4c(c3)n(C)c(=O)n4C)C2=O)cc1 | 2.13%
62 | Cc1cccc(N(CC(=O)N2CCCC2)S(C)(=O)=O)c1 | 16%
63 | C=C(C)C(=O)Nc1cccc(C2=NOC3(C2)C[C@@H](C(N)=O)N(C(=O)c2ccc(OC)cc2)C3)c1 (stereo partly drawn) | 5.4%
64 | O=C(CCc1nnc(-c2ccccc2)o1)c1ccc(Cl)cc1 | 6.41%
65 | CSc1nc(SCC(=O)NCc2ccco2)c2c3c(sc2n1)CN(C)CC3 | -0.986%
66 | Cc1c(CCC(=O)O)c(=O)oc2cc3occ(-c4ccc(F)cc4)c3cc12 | -10.4%

Row | Structure (SMILES) | hERG current change (%, negative = inhibition) at 10uM
67 | Cc1ccc(C(=O)Nc2cnc3sc(C)nn3c2=O)cc1 | 9.63%
68 | Cc1cc(C(=O)OCC(=O)Nc2cc(Cl)ccc2C)c(C)o1 | 0.501%
69 | Cc1cc(NC(=O)CSc2ccccc2)no1 | 10.2%
70 | CCc1nn(CC(=O)NCCCN2CCOCC2)c(=O)c2cc3cc(F)ccc3n12 | -5.09%
71 | CC(=O)Nc1ccc(N=Cc2c(O)c3ccccc3oc2=O)cc1 | 15%
72 | CC(C)CN1CCC(=O)N([C@H](CSc2ccc(Br)cc2)c2ccccc2)CC1 | -63.9%
73 | COc1ccc(S(=O)(=O)N2CCC(C(=O)NCc3ccc(C)cc3)CC2)cc1 | -29.7%
74 | CCOC(=O)C1CCCN(C(=O)c2cc(S(=O)(=O)N3CCCCCC3)ccc2OC)C1 (stereo not drawn) | -17.4%
75 | Cc1cccc(C)c1-n1c(C)cc(/C=C2\C(=O)NN(c3ccccc3)C2=O)c1C | 2.58%
76 | Cc1c(CC(=O)NCCCC(=O)O)c(=O)oc2cc3oc4c(c3cc12)CCCC4 | 10.2%
77 | CC(=O)c1cccc(NC(=O)CSCc2ccc(Br)cc2)c1 | 11.1%
78 | COC(=O)c1c(NC(=O)c2cccnc2Cl)sc(C(=O)N(C)C)c1C | -6.44%
79 | Cc1ccc(NC(=O)NC2CCCCC2)cc1Cl | 2.56%
80 | Cc1cc(Br)cc(Cl)c1OC(=O)c1cnccn1 | 11.3%
81 | CC1(C)C(=O)Nc2ccccc2N1C(=O)COC(=O)c1ccc(Cl)c(S(=O)(=O)NCc2ccccc2)c1 | -12.8%
82 | COCc1cc(=O)[nH]c(-c2ccccc2OC(F)(F)F)n1 | -38.2%
83 | O=C(COc1cc(Cl)c(Cl)cc1Cl)NCCN1CCOCC1 | -7.1%
84 | Cn1c([N+](=O)[O-])cnc1COC(N)=O | 12.6%
85 | CC#CC(=O)N1CCC(Oc2cccc(C(=O)NCc3ccccn3)c2)CC1 | 12.4%
86 | Cn1cccc1/C=N/N1CCN(Cc2cccc3ccccc23)CC1 | -4.35%
87 | C=C(C)Cn1c(SCC(=O)O)nnc1-c1ccccc1 | 4.41%
